# Reference: PMC12136788
# Some of the results follow.
# T1: UNK ZnF1-6 (called full-length) (human, UniProt Q9C0B0 30-357)
# T1 sequence: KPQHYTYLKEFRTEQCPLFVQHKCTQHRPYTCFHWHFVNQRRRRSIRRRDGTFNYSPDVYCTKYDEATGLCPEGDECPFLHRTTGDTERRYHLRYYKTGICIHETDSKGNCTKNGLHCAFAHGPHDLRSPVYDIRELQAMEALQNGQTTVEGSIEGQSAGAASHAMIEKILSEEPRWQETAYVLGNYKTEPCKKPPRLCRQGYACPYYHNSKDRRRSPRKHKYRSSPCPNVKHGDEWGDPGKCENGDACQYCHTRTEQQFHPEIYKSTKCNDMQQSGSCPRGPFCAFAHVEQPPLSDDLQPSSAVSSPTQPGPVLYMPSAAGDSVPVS
# B1: chr11:62841694:62841860:-|5pUTR|ENSG00000133316|unk|total|mutant (ssRNA)
# RNA: GGGAGUUCUACAGUCCGACGAUCGCCGCCGAGGCGACCGAAGUAAAGGUAUCGCUUCUCGGCCUUUUGGCUAAGAUCAAGUGCCGUAUCUGUUCUUAUCAGUUUAAUAUCUGAUACGUCCUCUAUCCGAGGACAAUAUAUUAACAACAGAGGAUUGAGCAUCA
# B2: chr19:48382969:48383148:-|3pUTR|ENSG00000105438|msi1_unk|total|mutant (ssRNA)
# RNA: GGGAGUUCUACAGUCCGACGAUCACUUGGGCUGUUUGCCGUUUUUUGCCUUUCCGACAAGAAAAAAAAAUCUUUCCACUCUUCCGUUUUUGAUUCUGAUGACUCGUUUUUCUUCUACUCUGUGGCCCCAAUUUUUAUAAAGUGCAACAGAGGAUUGAGCAUCA
# B3: chr1:94529602:94529703:-|3pUTR|ENSG00000117525|msi1|total|mutant (ssRNA)
# RNA: GGGAGUUCUACAGUCCGACGAUCUGGAAGGAAAUUGGGUGCAUUUCCCGGACUUUUCUAACAUAUGUCUAUAAUACCGUGUUCCGGUUCUUUUUUUUUUCAGGAAUACAUUUGGAAAUUCAAAACAAUUGGCAAACUUUGUAUCAACAGAGGAUUGAGCAUCA
# B4: chr6:122456482:122456612:-|CDS|ENSG00000111897|unk|total|mutant (ssRNA)
# RNA: GGGAGUUCUACAGUCCGACGAUCUGCUUUGGUUUGGCUAUGUUCUAUCUUCUUCUCUCUUUACUAAUGAUCAAAGUGAAGAGCCGCAGUGAUCCCCGAGCUGCAGUGCACAAUGGGUAAGUUUUUAAAUAAGCUUCAAUAUAACAACAGAGGAUUGAGCAUCA
# B5: ENSG00000136451:be:win_51|CDS|ENSG00000136451|bound_else_gene|NA|bound_elsewhere_windowed (ssRNA)
# RNA: GGGAGUUCUACAGUCCGACGAUCUCACCAACAGCAGGCAGCACAGAACAGCUUGCUGCCCCUCCUGAGCUCUGCCGUGGAGCCCCCUGAUCAGAAACCAUUGCUUCCAAUACCAAUAACUCAGAAACCUCAGGGUGCACCAGACAACAGAGGAUUGAGCAUCA
# B6: ENSG00000198589:be:win_751|CDS|ENSG00000198589|bound_else_gene|NA|bound_elsewhere_windowed (ssRNA)
# RNA: GGGAGUUCUACAGUCCGACGAUCAAACCAUAUUUGUAUUGUUUCAGAACCAGCAAAGGUCUUGGCUAUUCUGCUCAUUUUGUUGGAGGCUGUUUGAUUGUAACAUCAAUAAAGUCAAAAGGAAAAGGCUUUCAACACUGUGUGCAACAGAGGAUUGAGCAUCA
# Biological target: T1, UNK ZnF1-6 (called full-length)
# Experiment: nsRBNS (natural sequence RNA bind-n-seq); RBNS binding buffer (assumed for nsRBNS): 25 mM Tris pH 7.5, 150 mM KCl, 3 mM MgCl2, 0.01% Triton X-100, 500 ug/ml BSA, 20 U/ml SUPERase-In, 4 C; UNK is unkempt and MSI1 is Musashi-1; names of the RNAs are library labels; protein concentration not given here; high values mean tight binding
row,Binder,binding signal [enrichment R]
1,B1,0.28
2,B2,0.646
3,B3,0.606
4,B4,0.461
5,B5,0.676
6,B6,0.358
